The campaign covered roughly 390,000 compounds. About 1,400 (0.36%) were called active. Inconclusive means that the source gave no clear call. Such entries were picked first, then a sample of the others. The call rests on the fitted dose curve; in most records, active means well fitted inhibition curve with a large enough effect; inconclusive means small, poorly fitted or top-dose-only effect; inactive means no such curve, though single readings can be large or run the other way. Potencies of inconclusive entries are doubtful fits and often do not repeat.
Target: Flap endonuclease 1 (Homo sapiens) (UniProt P39748)
Experiment: qHTS Assay for the Inhibitors of Human Flap endonuclease 1 (FEN1). Further: nearly all actives have a fitted effect of over 65% in size.
Settings: Recombinant FEN1 flap cleavage, fluorescence, 15 min; series mostly up to 114 µM; activity change, negative = inhibition: at the top concentration
Procedure, shortened: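 Concentration–response screening of FEN1 (10 nM): 15 min compound preincubation at room temperature, reaction started with 50 nM substrate and read at 0 and 15 min. Corrected, normalized data were fitted by a four-parameter Hill equation.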
On the % scale 0 is the no-effect control and ±100 the full control effect; potency means the concentration at half of the fitted maximal effect; tags describe the fitted curve by direction and shape.

Sequence of UniProt P39748 (P39748 whole entry, looked up): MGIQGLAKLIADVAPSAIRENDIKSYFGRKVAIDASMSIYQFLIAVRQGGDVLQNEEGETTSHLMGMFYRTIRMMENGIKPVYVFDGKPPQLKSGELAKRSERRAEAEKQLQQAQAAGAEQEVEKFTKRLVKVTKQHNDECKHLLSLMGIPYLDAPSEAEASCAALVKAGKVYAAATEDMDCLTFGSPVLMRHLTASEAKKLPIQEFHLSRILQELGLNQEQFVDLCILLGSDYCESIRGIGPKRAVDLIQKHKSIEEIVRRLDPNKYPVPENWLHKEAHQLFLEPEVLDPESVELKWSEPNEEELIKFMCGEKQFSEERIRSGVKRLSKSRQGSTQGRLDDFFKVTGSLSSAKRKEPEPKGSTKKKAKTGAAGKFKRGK

Structure (SMILES)	Potency	activity change, negative = inhibition
CCOc1ccc(CNCc2ccccc2Cl)cc1	inconclusive: 89.1 µM [inhibitor, single point]	
Fc1ccc2[nH]c3c(NCCN4CCOCC4)ncnc3c2c1	inconclusive: 39.8 µM [inhibitor, partial curve, poor fit]	
CCOc1cc2[nH]c(=S)n(Cc3ccc(C(=O)NCCN(CC)CC)cc3)c(=O)c2cc1OCC	inconclusive: 39.8 µM [inhibitor, partial curve, poor fit]	
CN1C/C(=C/c2ccccc2[N+](=O)[O-])C(=O)/C(=C\c2ccccc2[N+](=O)[O-])C1	inconclusive: 100 µM [inhibitor, single point]	
CCOCCn1c2ccccc2c2nc3ccccc3nc21	inconclusive: 89.1 µM [inhibitor, single point]	
COc1ccc(CCNC(=O)Cn2nc(C)c3c(C)n(-c4ccc(C)cc4)nc3c2=O)c(OC)c1	inconclusive: 50.1 µM [inhibitor, partial curve, poor fit]	
Cc1cc(Cl)ccc1NNC(=O)c1cccs1		inactive: 1.26%
Cc1ccc(C2c3[nH]c4ccccc4c3CCN2C(=O)CCc2ccccc2)cc1 (centres undefined)	inconclusive: 50.1 µM [inhibitor, partial curve, poor fit]	
Cc1cc(=O)oc2cc(OCC(=O)Nc3c(C(C)C)cccc3C(C)C)ccc12		inactive: -11.3%
O=C(CSc1ccccn1)Nc1ccc2c(c1)C(=O)c1ccccc1C2=O	inconclusive: 79.4 µM [inhibitor, partial curve]	
COc1cccc(C(=O)Nc2cccc(OCc3cc(=O)n4cccc(C)c4n3)c2)c1		inactive: 16.2%
CCc1cccc(NC(=O)CS(=O)Cc2nc(-c3ccc(C)cc3)oc2C)c1 (centres undefined)	inconclusive: 50.1 µM [inhibitor, partial curve, poor fit]	
CC1=C(SCc2ccccc2)C(=O)c2ccccc2C1=O	inconclusive: 39.8 µM [inhibitor, partial curve]	
BrC(=C\c1ccccc1)/C=N/Nc1ccc2nncn2n1	inconclusive: 56.2 µM [inhibitor, partial curve, poor fit]	
CCn1nc(C)c2c(-c3ccccc3)cc(=O)n(C(C)C(=O)NCCc3ccccc3)c21 (centres undefined)		inactive: -15.6%
CCc1nn2c(=O)cc(COC(=O)c3ccccc3NC(=O)c3cccs3)nc2s1		inactive: 0.706%
COC(=O)c1ccc(NC(=O)CC2C(=O)N(c3cccc(C)c3)C(=O)N2C2CCCC2)cc1 (centres undefined)		inactive: -24.2%
c1ccc(C(Cc2nc(-c3ccncc3)no2)c2ccccc2)cc1	inconclusive: 89.1 µM [inhibitor, partial curve, poor fit]	
COc1cc2cc(CN(CCc3ccccc3C)C(=S)NCCCN(C)C)c(=O)[nH]c2cc1OC	inconclusive: 50.1 µM [inhibitor, partial curve, poor fit]	
CC1CN(C(=O)CCC(=O)NCc2ccc(Cl)cc2)c2ccccc2O1 (centres undefined)	inconclusive: 6.31 µM [inhibitor, full curve, poor fit]	

Structure (SMILES)	Potency	activity change, negative = inhibition
C/C(=N\NC(=O)COc1ccc(C)cc1C(C)C)c1cc2ccccc2o1	inconclusive: 79.4 µM [inhibitor, partial curve, poor fit]	
COc1ccc(OC)c2sc(N(CCCN(C)C)C(=O)c3ccco3)nc12	inconclusive: 79.4 µM [inhibitor, single point]	
N#C/C(=C/c1ccc(OCc2ccc(C(=O)O)cc2)cc1)C(=O)Nc1ccccc1	inconclusive: 79.4 µM [inhibitor, partial curve, poor fit]	
C/C(=N\NC(=O)c1ccc(-c2ccccc2)cc1)c1ccco1		inactive: -1.71%
CCOC(=O)c1cc2c(=O)n3ccccc3nc2n(Cc2ccco2)c1=NC(=O)c1ccc(OC)cc1OC	inconclusive: 89.1 µM [inhibitor, single point]	
N#CC1=C(N)n2c(s/c(=C\c3cccs3)c2=O)=C(C#N)C1c1cccs1 (centres undefined)	inconclusive: 44.7 µM [inhibitor, partial curve]	
COc1ccc(NC(=O)c2[nH]c(C)c(C(C)=O)c2C)cc1S(=O)(=O)Nc1ccc(Br)cc1	inconclusive: 79.4 µM [inhibitor, partial curve, poor fit]	
COc1ccccc1-c1sc2cc3c(cc2c1C#Cc1cncn1C)OCO3	inconclusive: 79.4 µM [inhibitor, partial curve, poor fit]	
Nc1cccc(Nc2nc(OC(C(F)(F)F)C(F)(F)F)nc(OC(C(F)(F)F)C(F)(F)F)n2)c1	inconclusive: 7.94 µM [inhibitor, partial curve, poor fit]	
O=C(O)c1ccccc1N/N=C/c1c(Sc2nnnn2-c2ccccc2)nc2ccccn2c1=O	inconclusive: 56.2 µM [inhibitor, single point]	
COc1cc(CC2COC(c3ccc(O)c(OC)c3)C2COC(C)=O)ccc1O (centres undefined)	active: 56.2 µM	
C[C@H]1c2cccc(O)c2C(O)=C2C(=O)[C@]3(O)C(O)=C(C(N)=O)C(=O)[C@@H](N(C)C)[C@@H]3[C@@H](O)[C@@H]21	inconclusive: 23.8 µM [inhibitor, partial curve]	
CC(C)Oc1ccc(-c2nc(NCC3CCCO3)c3ccccc3n2)cc1 (centres undefined)	inconclusive: 79.4 µM [inhibitor, partial curve, poor fit]	
Cc1cccc(-n2c(SCC(=O)Nc3ccccc3C)nc3c(oc4ccccc43)c2=O)c1		inactive: 0.221%
O=S(=O)(O)c1cc(Cl)cc(N=Nc2ccc(O)cc2O)c1O	active: 56.2 µM	
O=S(=O)(c1ccc(=S)[nH]c1)N1CCN(Cc2ccccc2)CC1		inactive: 1.67%
Cc1ccc2[nH]c(=O)c(C(c3nnnn3Cc3ccccc3)N3CCc4ccccc43)cc2c1 (centres undefined)	inconclusive: 20 µM [inhibitor, partial curve, poor fit]	
Cc1cccc2cc(C(c3nnnn3CC3CCCO3)N3CCc4ccccc4C3)c(=O)[nH]c12 (centres undefined)	inconclusive: 44.7 µM [inhibitor, partial curve]	
CCOc1ccc(C(=O)Nc2ccc3c(c2)OCCO3)cc1Br	inconclusive: 79.4 µM [inhibitor, partial curve, poor fit]	

Reference: PubChem BioAssay AID588795 (National Center for Advancing Translational Sciences (NCATS), 2011)
